Experimental data from the supplement of paper PMC12355420.
Counter-ions that a name gives are not always drawn. This is one part of the list. Cut-off read from the data, not from the text of the source: active = 0.5 or less and inactive = the rest. Single values are uncertain, as repeats are few or missing.

What was measured:
Conditions in all cases: 50 µM; 24 h
[1] = system: HeLa VPS33A reporter cells; assay: relative cell viability (CellMask signal) vs DMSO (fraction of DMSO); higher = less cytotoxic;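 note: primary screen of an FDA-approved drug library in HeLa reporter cells in 96-well format, CellMask signal normalized to DMSO-treated wells set as 1, under 0.5 deemed highly cytotoxic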
[2] = system: HeLa VPS33A R498W KI + HA-SDC1-FLAG; assay: relative GAG core protein HA-SDC1 amount per cell number vs DMSO (fraction of DMSO); higher = more SDC1 (GAG core protein);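 note: HA-SDC1 level read out by In-Cell Western staining with an anti-HA antibody against the N-terminal tag, screening FDA-approved library drugs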
[3] = system: HeLa VPS33A KO + NLuc-VPS33A R498W; assay: relative mutant VPS33A R498W amount (NanoLuc luminescence) vs DMSO (fraction of DMSO); HeLa model of a glycosaminoglycan (GAG) storage disease; KI is knock-in and KO knock-out; SDC1 is syndecan 1; higher = higher mutant VPS33A level;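 note: screen of an FDA-approved drug library, NanoLuc luminescence read after lysing the treated cells, taken as a measure of mutant VPS33A protein stability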

SMILES | relative cell viability [1] | relative GAG core protein HA-SDC1 amount per cell number [2] | relative mutant VPS33A R498W amount [3]
C=C1CC[C@H]2[C@@H](C=C(C)C(=O)[C@@]3(O)C[C@H](C)[C@H](O)[C@@H]3[C@H]1O)C2(C)C [Lathyrol] | 1.05 | inactive: 0.777 | 1.2
O=Cc1ccco1 [Furfural] | 0.961 | inactive: 0.893 | 1.36
O=c1[nH]c2ccccc2n1C1CCN(CCCC(c2ccc(F)cc2)c2ccc(F)cc2)CC1 [Pimozide] | 1.06 | inactive: 0.943 | 1.41
O=c1[nH]c2ccccc2n1CCCN1CCC(n2c(=O)[nH]c3cc(Cl)ccc32)CC1 [Domperidone] | 1.13 | active: 0.398 | 0.508
O=C(O)CCCc1ccc(N(CCCl)CCCl)cc1 [Chlorambucil] | 0.939 | inactive: 0.745 | 0.756
COC1=C[C@@H]2[C@@H]3Cc4ccc(OC)c(O)c4[C@]2(CCN3C)CC1=O [Sinomenine] | 1.07 | inactive: 0.909 | 1.4
CC(=O)O[C@H]1C[C@@H]2CC[C@@H]3[C@H](CC[C@@]4(C)[C@H]3C[C@H]([N+]3(C)CCCCC3)[C@@H]4OC(C)=O)[C@@]2(C)C[C@@H]1[N+]1(C)CCCCC1 [Pancuronium dibromide] | 1.05 | inactive: 0.722 | 1.17
Cc1cc(O)ccc1Cl [Chlorocresol] | 1.03 | inactive: 1.2 | 1.23
CC[C@@H](C(N)=O)N1CCCC1=O [Levetiracetam] | 1.47 | inactive: 0.834 | 1.08
Cc1cccc(C)c1NC1=NCCCS1 [Xylazine] | 0.99 | inactive: 0.818 | 1.16
CCCN1C[C@H](CSC)C[C@@H]2c3cccc4[nH]cc(c34)C[C@H]21 [Pergolide mesylate] | 1.1 | inactive: 0.999 | 1.05
Cn1cc(C2=C(c3cn(C4CCN(Cc5ccccn5)CC4)c4ccccc34)C(=O)NC2=O)c2ccccc21 | 1.05 | inactive: 3.76 | 0.496
Cc1cccc([C@H](C)c2c[nH]cn2)c1C [Dexmedetomidine] | 1.19 | active: 0.452 | 0.614
CC1C(=O)OC2C(O)C34C5OC(=O)C3(OC3OC(=O)C(O)C34C(C(C)(C)C)C5O)C12O (centres undefined) [Ginkgolide C] | 1.04 | inactive: 0.64 | 1.16
Cc1cccc(C)c1NC(=O)CN1CCCC1=O [Nefiracetam] | 1.28 | inactive: 1.24 | 1.59
CC[C@@]1(O)C(=O)OCc2c1cc1n(c2=O)Cc2cc3ccccc3nc2-1 [Camptothecin] | 1.16 | inactive: 0.781 | 0.675
COc1ccc(C=O)cc1 [p-Anisaldehyde] | 1.02 | inactive: 0.817 | 1.29
O=[N+]([O-])O[C@H]1CO[C@H]2[C@@H]1OC[C@H]2O[N+](=O)[O-] [Isosorbide Dinitrate] | 1.01 | inactive: 0.881 | 1.24
C=C1C[C@@H]2[C@H](CC[C@]3(C)C(=O)CC[C@@H]23)[C@@]2(C)C=CC(=O)C=C12 [Exemestane] | 1.19 | active: 0.309 | 0.873
CN(C)[C@@H]1C(=O)C(C(N)=O)=C(O)[C@@]2(O)C(=O)C3=C(O)c4c(O)cccc4[C@@](C)(O)[C@H]3[C@H](O)[C@@H]12 [Oxytetracycline (Terramycin)] | 0.937 | inactive: 0.805 | 0.994
CC(C)(C)NCC(O)c1cc(Cl)c(N)c(Cl)c1 (centres undefined) [Clenbuterol (hydrochloride)] | 1.15 | inactive: 0.754 | 1.06
NC(=O)CN1CC(O)CC1=O (centres undefined) [Oxiracetam] | 0.935 | inactive: 0.992 | 1.6
CC(C)OC(=O)[C@H](C)N[P@](=O)(CO[C@H](C)Cn1cnc2c(N)ncnc21)Oc1ccccc1 | 1.09 | inactive: 0.721 | 2.33
O=C([O-])C(Cl)Cl.[Na+] | 0.986 | inactive: 0.856 | 1.25
NCC1(CC(=O)O)CCCCC1 [Gabapentin HCl] | 1.28 | inactive: 1.65 | 1.15
C#C[C@]1(O)C=C[C@H]2[C@@H]3CCC4=CC(=O)CC[C@@H]4[C@H]3CC[C@@]21CC [Gestodene] | 1.02 | inactive: 1.11 | 1.4
COC(=O)C1=CCCN(C)C1 [Arecoline hydrobromide] | 1.04 | inactive: 0.789 | 1.38
O=C1CC[C@@]2(O)[C@H]3Cc4ccc(O)c5c4[C@@]2(CCN3CC2CC2)[C@H]1O5 [Naltrexone HCl] | 0.966 | inactive: 0.995 | 1.25
